Test results taken from patent US20160257711A1 (BOARD OF TRUSTEES OF THE UNIVERSITY OF ILLINOIS, published 2016).

Target: T1, purified recombinant Gα13 (Homo sapiens (Human), UniProt Q14344 1-377, limits assumed)
T1 construct: Expression and purification only 'described previously'; Loaded with GDP, GTPγS or AlF4- in some reactions; also called Purified Gα13
T1 sequence: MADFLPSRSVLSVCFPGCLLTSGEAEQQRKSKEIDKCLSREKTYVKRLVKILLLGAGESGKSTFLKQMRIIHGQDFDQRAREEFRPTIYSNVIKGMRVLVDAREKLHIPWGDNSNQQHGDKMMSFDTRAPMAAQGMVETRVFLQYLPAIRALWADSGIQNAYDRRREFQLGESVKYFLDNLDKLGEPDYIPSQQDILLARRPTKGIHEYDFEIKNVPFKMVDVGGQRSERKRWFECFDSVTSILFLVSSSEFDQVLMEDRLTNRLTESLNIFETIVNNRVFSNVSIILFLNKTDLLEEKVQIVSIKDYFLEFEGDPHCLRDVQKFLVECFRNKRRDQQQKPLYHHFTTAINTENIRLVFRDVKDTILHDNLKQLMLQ
Experiment: pull-down of purified Gα13 with GST on glutathione beads, anti-Gα13 blot

binding result: no binding
B1: glutathione S-transferase (GST) (other)
chain: not shown
notes: Control protein on glutathione beads
